# Measured values reported in PubChem BioAssay (Tox21).
# “And” between values parts separate entries of the source, which are not always exact repeats. Identical values can stand only once. Inconclusive results, whose numbers are uncertain, are shown with a selection of clear calls. For part of these data: Where the call is inconclusive, the potency comes from a doubtful curve fit. The source made the active and inactive calls. Unless noted, calls follow the shape of the dose curve; as a rule, active = well fitted curve in the direction sought with a large enough effect in the repeat runs; inconclusive = weak or mixed curves; inactive = no such curve, though single readings can be large; an effect the other way counts as inactive or inconclusive.
# Key:
# [1] = qHTS RealTime-Glo MT Cell Viability Assay in HEK293 cells - 40 hour (AID 1224874); details: RealTime-Glo luminescence; max response: stronger effect = lower value; also: nearly all actives have a fitted effect of over 50% in size; also: potency is read from the fitted curve at half-maximal effect; as to max response: % is scaled to controls: 0 for no effect and ±100 for the full control effect
# Summary of the method: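 Viable HEK293 cells reduce a cell-permeant prosubstrate; the product diffuses out and is consumed by NanoLuc in the medium to give light. Compounds went in after a 5 h incubation and plates were read over the treatment course.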
# [2] = Caspase-3/7 induction in CHO-K1 cells by small molecules, qHTS cell viability counter screen (AID 1346979); also: nearly all actives have a fitted effect of over 35% in size; also: potency is read from the fitted curve at half-maximal effect; as to activity change, negative = cytotoxicity: % is scaled to controls: 0 for no effect and ±100 for the full control effect
# Summary of the method: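 Cells (CHO-K1, wild type) are plated at 1,500 per well and incubated 5hr. Test compounds in DMSO are then pinned in, followed by 16hr at 37C and 5% CO2. Viability is read by CellTiter-Fluor fluorescence after 1hr.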
# [3] = molecular target: Aryl hydrocarbon receptor (Homo sapiens) (UniProt P35869); assay: qHTS assay to identify small molecule that activate the aryl hydrocarbon receptor (AhR) signaling pathway (AID 743085); also: nearly all actives have a fitted effect of over 15% in size; also: potency is read from the fitted curve at half-maximal effect
# Chain of UniProt P35869 (P35869 whole entry, looked up): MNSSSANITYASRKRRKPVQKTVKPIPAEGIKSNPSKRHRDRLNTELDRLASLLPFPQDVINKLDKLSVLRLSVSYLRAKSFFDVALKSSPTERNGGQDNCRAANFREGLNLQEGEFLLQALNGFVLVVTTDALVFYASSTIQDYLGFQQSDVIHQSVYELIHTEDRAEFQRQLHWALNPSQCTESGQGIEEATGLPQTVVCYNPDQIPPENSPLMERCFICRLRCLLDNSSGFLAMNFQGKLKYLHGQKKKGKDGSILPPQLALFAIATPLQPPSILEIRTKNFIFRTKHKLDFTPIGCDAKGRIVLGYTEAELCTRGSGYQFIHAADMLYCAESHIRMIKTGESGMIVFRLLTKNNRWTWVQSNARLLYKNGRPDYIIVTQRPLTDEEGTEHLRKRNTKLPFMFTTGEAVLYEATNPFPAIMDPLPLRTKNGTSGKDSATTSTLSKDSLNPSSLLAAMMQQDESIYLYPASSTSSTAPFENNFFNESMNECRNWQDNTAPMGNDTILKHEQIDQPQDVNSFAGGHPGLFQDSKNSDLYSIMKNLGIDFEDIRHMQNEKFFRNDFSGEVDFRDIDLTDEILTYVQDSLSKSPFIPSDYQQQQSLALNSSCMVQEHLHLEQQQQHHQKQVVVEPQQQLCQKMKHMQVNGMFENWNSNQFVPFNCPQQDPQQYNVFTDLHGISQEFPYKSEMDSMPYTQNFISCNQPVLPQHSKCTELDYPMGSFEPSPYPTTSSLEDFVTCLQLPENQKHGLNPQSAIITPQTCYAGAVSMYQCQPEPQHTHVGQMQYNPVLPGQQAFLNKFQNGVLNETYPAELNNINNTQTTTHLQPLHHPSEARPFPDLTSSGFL
# Summary of the method: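 Cell line HG2L7.5c1 (human hepatoma, 20× DRE-luc). Plated, 5 h 37C, compound/DMSO added, 24 h 37C. CellTiter-Fluor 30 min 37C → fluorescence; then ONE-Glo 30 min RT → luminescence.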
# [4] = qHTS assay to identify small molecule agonists of the peroxisome proliferator-activated receptor delta (PPARd) signaling pathway - cell viability counter screen (AID 743211); details: PPARd-bla HEK293H viability, CellTiter-Glo luminescence, 17 h; activity change, negative = cytotoxicity: at 62.6 µM (top of the series) unless noted; also: nearly all actives have a fitted effect of over 55% in size; also: potency is read from the fitted curve at half-maximal effect
# Summary of the method: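 HEK293H PPARd-bla, 3000 cells/well; 5 h preincubation 37C/5% CO2; cpd in DMSO, 17 h 37C; B/G FRET substrate 2 h RT; CellTiter-Glo 30 min RT, luminescence.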
# [5] = qHTS assay to identify small molecule antagonists of the vitamin D receptor (VDR) signaling pathway - cell viability counter screen (AID 743225); details: VDR-bla HEK293T viability, CellTiter-Glo luminescence, 16 h; viability change, negative = cytotoxic: at 61 µM (top of the series) unless noted; also: % is scaled to controls: 0 for no effect and ±100 for the full control effect; nearly all actives have a fitted effect of over 50% in size
# Summary of the method: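 Read-out: CellTiter-Glo luminescence measured 30 min after reagent addition at room temperature. Cells were VDR-bla HEK 293T exposed 16 h at 37C, 5% CO2, to compound with 3 nM final calcitriol agonist.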
# [6] = qHTS RealTime-Glo MT Cell Viability Assay in HEK293 cells - 16 hour (AID 1224872); also: nearly all actives have a fitted effect of over 50% in size; also: potency is read from the fitted curve at half-maximal effect
# Summary of the method: (§1)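 Assay medium contained NanoLuc luciferase plus cell-permeant prosubstrate, added with HEK293 cells at 600 cells/well. After 5 h at 37 C/5% CO2 compounds were added; plates stayed at 37 C for 40 h with serial luminescence reads.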
# [7] = qHTS RealTime-Glo MT Cell Viability Assay in HEK293 cells - 24 hour (AID 1224886); also: nearly all actives have a fitted effect of over 50% in size; also: potency is read from the fitted curve at half-maximal effect
# Summary of the method: as §1
# [8] = molecular target: Thyrotropin receptor (Homo sapiens) (UniProt P16473); assay: qHTS assay to identify small molecule antagonists of the thyroid stimulating hormone receptor (TSHR) signaling pathway (AID 1259385; calls by dose curve; also: nearly all actives have a fitted effect of over 20% in size; also: potency is read from the fitted curve at half-maximal effect); details: TSHR-HEK293 cAMP HTRF, TSH-stimulated antagonist mode; activity change, negative = inhibition: at 92.4 µM (top of the series) unless noted
# Chain of UniProt P16473 (P16473 whole entry, looked up): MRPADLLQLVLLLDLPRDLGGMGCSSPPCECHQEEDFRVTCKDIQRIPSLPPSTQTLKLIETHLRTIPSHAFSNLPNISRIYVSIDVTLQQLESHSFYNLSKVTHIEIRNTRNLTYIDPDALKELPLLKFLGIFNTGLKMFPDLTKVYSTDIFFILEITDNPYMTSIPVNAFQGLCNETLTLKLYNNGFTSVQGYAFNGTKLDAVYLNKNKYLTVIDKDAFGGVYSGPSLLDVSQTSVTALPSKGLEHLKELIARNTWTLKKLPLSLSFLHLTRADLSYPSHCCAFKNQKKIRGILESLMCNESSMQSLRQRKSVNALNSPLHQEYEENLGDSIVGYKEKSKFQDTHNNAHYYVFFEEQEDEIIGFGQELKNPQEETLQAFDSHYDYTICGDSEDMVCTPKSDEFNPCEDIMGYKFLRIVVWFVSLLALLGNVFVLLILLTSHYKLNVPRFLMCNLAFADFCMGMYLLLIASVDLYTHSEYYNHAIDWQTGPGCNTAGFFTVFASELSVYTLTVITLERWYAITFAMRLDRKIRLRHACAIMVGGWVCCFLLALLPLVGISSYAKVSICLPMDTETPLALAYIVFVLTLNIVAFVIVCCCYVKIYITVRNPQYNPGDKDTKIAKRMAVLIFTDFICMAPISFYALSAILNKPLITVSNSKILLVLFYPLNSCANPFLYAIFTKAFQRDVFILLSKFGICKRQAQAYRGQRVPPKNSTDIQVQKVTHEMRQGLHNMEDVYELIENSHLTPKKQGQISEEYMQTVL
# Summary of the method: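 TSHR-HEK293 cells were plated and held 18 h at 37C/5% CO2, then given compound plus Ro20-1724 and stimulated with TSH at 1.5 ng/mL final. After 30 min at room temperature, cAMP was detected with cAMP-d2/anti-cAMP-cryptate (1 h) by fluorescence.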
# [9] = qHTS assay to identify small molecule agonists of the vitamin D receptor (VDR) signaling pathway - cell viability counter screen (AID 743224); also: nearly all actives have a fitted effect of over 50% in size; also: potency is read from the fitted curve at half-maximal effect; as to activity change, negative = cytotoxicity: % is scaled to controls: 0 for no effect and ±100 for the full control effect
# Summary of the method: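 Plated VDR-bla cells (4 h, 37C) received compound, incubated 16 h, then LiveBLAzer substrate 2 h RT; CellTiter-Glo added afterwards, luminescence read at 30 min.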
# [10] = qHTS assay to identify small molecule antagonists of the glucocorticoid receptor (GR) signaling pathway - cell viability counter screen (AID 720693); details: GR-bla HeLa viability, CellTiter-Glo luminescence, 18 h, with 5 nM dexamethasone present; viability change, negative = cytotoxic: at 58.5 µM (top of the series); also: nearly all actives have a fitted effect of over 55% in size; also: potency is read from the fitted curve at half-maximal effect
# [11] = qHTS assay to identify small molecule antagonists of the estrogen receptor alpha (ER-alpha) signaling pathway using the BG1 cell line (AID 743080; calls by dose curve;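 also: BG1 cells stimulated with 17beta-estradiol alongside compound; potency is read from the fitted curve at half-maximal effect; nearly all actives have a fitted effect of over 25% in size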); details: BG1Luc4E2 ERE-luciferase antagonist mode, luminescence; activity change, negative = inhibition: at 70.3 µM (top of the series) unless noted
# Summary of the method: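 After 5 days in phenol-red-free 10% charcoal-stripped FBS medium, BG1-Luc-4E2 cells were seeded, left 24 h at 37 C, co-treated with compounds and 17beta-estradiol for 21.5 h, then assayed for viability and luciferase.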
# [12] = qHTS assay to identify small molecule agonists of the hypoxia (HIF-1) signaling pathway - cell viability counter screen (AID 1224844; calls by dose curve; also: nearly all actives have a fitted effect of over 50% in size; also: potency is read from the fitted curve at half-maximal effect)
# Summary of the method: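 Cells (HRE-bla ME-180, 2,000 per well) sat 5 hrs at 37C, got compound for 17 hrs, were read for CCF4-AM FRET, and were finally lysed with CellTiter-Glo for a 30 min room-temperature luminescence read.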
# [13] = qHTS assay to identify small molecule antagonists of the estrogen receptor alpha (ER-alpha) signaling pathway using the BG1 cell line - cell viability counter screen (AID 743081); details: BG1Luc4E2 viability, CellTiter-Fluor, 22 h; activity change, negative = cytotoxicity: at 70.3 µM (top of the series) unless noted;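 also: compound given together with 17beta-estradiol as the ER stimulus; nearly all actives have a fitted effect of over 45% in size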; also: potency is read from the fitted curve at half-maximal effect
# [14] = qHTS assay to identify small molecule antagonists of the androgen receptor (AR) signaling pathway using the MDA cell line - cell viability counter screen (AID 743041; also: % is scaled to controls: 0 for no effect and ±100 for the full control effect; nearly all actives have a fitted effect of over 45% in size); details: MDA-kb2 viability, CellTiter-Fluor, 16 h, cells co-treated with R1881 androgen agonist; viability change, negative = cytotoxic: at 70.3 µM (top of the series)
# Summary of the method: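 Viability counter screen run alongside the AR antagonist reporter: cells seeded 5 h before compound, R1881 added, 16 h incubation at 37C without CO2, fluorescent CellTiter-Fluor signal quantified.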
# [15] = qHTS assay to identify small molecule antagonists of the peroxisome proliferator-activated receptor gamma (PPARg) signaling pathway - cell viability counter screen (AID 743194); details: PPARg-bla HEK293H viability, CellTiter-Glo luminescence, 17 h, co-treated with 50 nM rosiglitazone; activity change, negative = cytotoxicity: at 62.6 µM (top of the series) unless noted; also: % is scaled to controls: 0 for no effect and ±100 for the full control effect; nearly all actives have a fitted effect of over 55% in size
# Summary of the method: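 PPARg-UAS-bla HEK293H cells were plated, rested 5 h at 37 C, then treated with compounds plus rosiglitazone (50 nM final) for 17 h at 37 C; viability was then read by CellTiter-Glo luminescence after 30 min at room temperature.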
# [16] = A CellTox Green Cytotoxicity Assay to monitor cytotoxicity in HepG2 cells - 40 hour (AID 1224879); also: nearly all actives have a fitted effect of over 40% in size; also: potency is read from the fitted curve at half-maximal effect
# Summary of the method: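 Using 1536-well format, dye-containing HepG2 suspension was seeded, allowed 5 h at 37 C/5% CO2, dosed by pintool with compounds, positive and negative controls, and imaged for fluorescence across 40 h.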
# [17] = molecular target: Bile acid receptor (Homo sapiens) (UniProt Q96RI1); assay: qHTS assay to identify small molecule antagonists of the farnesoid-X-receptor (FXR) signaling pathway (AID 743217; active = well fitted inhibition curve with a large enough effect in the signal ratio in the repeat runs, not every such curve was filed as active; inconclusive = weak or mixed curves, or effect the other way; inactive = no such curve, though single readings can be large or run the other way; the % refers to the signal ratio; also: % is scaled to controls: 0 for no effect and ±100 for the full control effect); details: HEK293T FXR-UAS-bla, beta-lactamase ratio, CDCA-stimulated, 16 h
# Chain of UniProt Q96RI1 (Q96RI1 whole entry, looked up): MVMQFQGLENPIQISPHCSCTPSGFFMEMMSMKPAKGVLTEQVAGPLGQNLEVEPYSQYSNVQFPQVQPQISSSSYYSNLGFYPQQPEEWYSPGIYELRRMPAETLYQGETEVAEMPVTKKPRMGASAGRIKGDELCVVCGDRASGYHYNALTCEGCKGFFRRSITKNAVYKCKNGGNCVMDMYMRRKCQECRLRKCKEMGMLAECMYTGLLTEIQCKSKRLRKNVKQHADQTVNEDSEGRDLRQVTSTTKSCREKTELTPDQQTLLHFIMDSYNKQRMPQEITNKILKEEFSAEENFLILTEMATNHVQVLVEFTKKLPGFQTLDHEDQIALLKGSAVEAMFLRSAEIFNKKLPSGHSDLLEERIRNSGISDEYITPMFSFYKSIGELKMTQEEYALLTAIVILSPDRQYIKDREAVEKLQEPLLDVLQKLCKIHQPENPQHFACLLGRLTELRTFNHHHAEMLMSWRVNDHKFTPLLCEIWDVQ
# Summary of the method: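 GeneBLAzer FXR-UAS-bla HEK 293T, CDCA-stimulated (50 uM final). Compound treatment 16 h, 37 °C. Detection: beta-lactamase cleavage of B/G FRET substrate, fluorescence.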
# [18] = qHTS assay to identify small molecule antagonists of the estrogen related receptor signaling pathway with the pleiotropic PPARgamma coactivator (PGC) from Tox21 10K library - cell viability counter screen (AID 1224840; active = well fitted cell-killing curve with a large enough effect in the repeat runs, not every such curve was filed as active; inconclusive = weak or mixed curves, or effect the other way; inactive = no such curve, though single readings can be large or run the other way; also: % is scaled to controls: 0 for no effect and ±100 for the full control effect; nearly all actives have a fitted effect of over 40% in size)
# Summary of the method: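 Following seeding of 2,000 PGC/ERR cells/well and 6 hours' incubation, test compounds were delivered in DMSO. The plates then sat 17.5 hours at 37 C before a fluorogenic live-cell protease reagent (CellTiter-Fluor) was read after 30 min.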
# [19] = molecular target: Nuclear receptor subfamily 1 group I member 2 (Homo sapiens) (UniProt O75469); assay: Human pregnane X receptor (PXR) small molecule agonists, qHTS assay (AID 1346982); also: nearly all actives have a fitted effect of over 35% in size; also: potency is read from the fitted curve at half-maximal effect
# Chain of UniProt O75469 (O75469 whole entry, looked up): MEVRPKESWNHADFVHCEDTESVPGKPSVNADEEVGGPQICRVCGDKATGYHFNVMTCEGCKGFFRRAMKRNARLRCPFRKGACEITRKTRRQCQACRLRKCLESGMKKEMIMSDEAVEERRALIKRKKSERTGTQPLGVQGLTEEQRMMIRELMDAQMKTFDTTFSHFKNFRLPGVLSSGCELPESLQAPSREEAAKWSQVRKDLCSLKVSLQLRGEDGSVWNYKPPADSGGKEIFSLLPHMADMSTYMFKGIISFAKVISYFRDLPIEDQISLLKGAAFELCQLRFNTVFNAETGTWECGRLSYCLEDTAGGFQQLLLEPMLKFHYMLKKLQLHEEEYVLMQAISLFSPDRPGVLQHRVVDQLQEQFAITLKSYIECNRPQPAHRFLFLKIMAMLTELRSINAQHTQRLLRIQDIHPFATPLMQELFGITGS
# Summary of the method: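 Compound-induced hPXR transactivation of a CYP3A4 luciferase reporter was scored in HepG2 PXR-Luc cells over 24 hr at 37 C, 5% CO2, by luminescence.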
# [20] = qHTS assay to identify small molecule antagonists of the TGF-beta/Smad signaling pathway (AID 1346924; active = well fitted inhibition curve with a large enough effect in the signal ratio in the repeat runs, not every such curve was filed as active; inconclusive = weak or mixed curves; the % refers to the signal ratio); details: SBE-bla HEK293T, TGF-beta/Smad reporter, beta-lactamase ratio; activity, negative = inhibition: at 76.8 µM (top of the series) unless noted
# Summary of the method: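 SBE-bla HEK 293T cells were plated overnight, then received compound in DMSO plus TGF-beta1 (added as a 0.25 ng/mL solution) and were incubated 5 h at 37 C. Beta-lactamase reporter activity was read after 2 h at room temperature with LiveBLAzer B/G FRET substrate (ex 405, em 460/530 nm).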
# [21] = activity change, negative = inhibition: at 62.6 µM (top of the series) unless noted
# Tags tell the direction and shape of the fitted curve.
smiles,measurement,setting,value
O=c1cc[nH]cc1,max response,[1],inactive: 1.32%
same,Potency,[2],inactive
S=c1[nH][nH]c(=S)s1,Potency,[3],"inconclusive: 48.6 µM [activator, partial curve]"
same,Potency,[4],"inconclusive: 61.6 µM [cytotoxic, single point]"
same,Potency,[5],inactive
same,Potency,[6],"inconclusive: 19.5 µM [rising, partial curve, poor fit]"
same,Potency,[1],"inconclusive: 49 µM [rising, partial curve, poor fit]"
same,Potency,[7],"inconclusive: 24.5 µM [rising, partial curve]"
same,Potency,[8],"inconclusive: 0.217 µM [falling, single point]"
COC(C)(C)CCCC(C)CC=O (stereo not drawn),Potency,[9],inactive
same,Potency,[2],"inconclusive: 61.1 µM [rising, partial curve, poor fit]"
c1ccc(CCCc2ccccn2)cc1,"viability change, negative = cytotoxic",[10],inconclusive: 30.1%
same,Potency,[11],"inconclusive: 24.3 µM [rising, partial curve]"
same,Potency,[3],"inconclusive: 54.5 µM [activator, partial curve]"
same,Potency,[12],inactive
NNC(=O)c1ccncc1,Potency,[13],"inconclusive: 33.5 µM [cytotoxic, single point] and inactive"
same,Potency,[3],active: 13.3 µM
same,Potency,[8],inactive
same,Potency,[2],"inconclusive: 29.8 µM [rising, partial curve]"
CN(C(=O)C(Cl)Cl)c1ccc(OC(=O)c2ccco2)cc1,Potency,[14],inactive
same,Potency,[15],inactive
same,Potency,[12],inactive
same,Potency,[6],inactive
same,Potency,[16],inactive
CCCOc1ccc(C(=O)OCCN(CC)CC)cc1N,Potency,[13],"inconclusive: 11.9 µM [cytotoxic, single point]"
same,Potency,[3],active: 1.33 µM
same,Potency,[9],inactive
COc1ccc([C@@H]2CC(=O)c3c(O)cc(O[C@@H]4O[C@H](CO[C@@H]5O[C@@H](C)[C@H](O)[C@@H](O)[C@H]5O)[C@@H](O)[C@H](O)[C@H]4O)cc3O2)cc1OC,Potency,[4],"inconclusive: 21.8 µM [cytotoxic, single point]"
same,"activity change, negative = inhibition",[17]; [21],inconclusive: 12.8%
same,"activity change, negative = inhibition",[17]; at 62.6 µM (top of the series),inactive: 10.4%
same,Potency,[9],"inconclusive: 53 µM [rising, partial curve, poor fit]"
same,Potency,[18],inactive
same,Potency,[12],"inconclusive: 18.8 µM [cytotoxic, single point]"
same,Potency,[19],"inactive and inconclusive: 29.6 µM [activator, partial curve, poor fit]"
NC(=O)N[C@@H](CCC(=O)O)C(=O)O,Potency,[10],"inconclusive: 0.477 µM [rising, single point]"
same,Potency,[9],inactive
same,Potency,[5],inactive
CC(C)[C@H](N)C(=O)OCCOCn1cnc2c(=O)[nH]c(N)nc21,Potency,[4],inactive
O=C(NCC(O)CO)c1c(I)c(C(=O)NCC(O)CO)c(I)c(N(CCO)C(=O)CO)c1I (stereo not drawn),Potency,[15],inactive
CCOC(=O)c1ccccc1OC,Potency,[3],inactive
same,Potency,[7],inactive
same,Potency,[2],inactive
COCc1nnc(-c2ccc[n+]([O-])c2)n1-c1c(Cl)c(Cl)cc2[nH]c(=O)c(=O)[nH]c12,Potency,[17]; [21],inactive
same,Potency,[12],inactive
C[C@H](NC(CCc1ccccc1)C(=O)O)C(=O)N1CCC[C@H]1C(=O)O (stereo partly drawn),max response,[1],inactive: -70.9%
CCOc1nc2cccc(C(=O)O)c2n1Cc1ccc(-c2ccccc2-c2nn[nH]n2)cc1,Potency,[10],"inconclusive: 26.8 µM [cytotoxic, single point]"
same,Potency,[11],active: 2.66 µM
same,Potency,[4],inactive
same,Potency,[5],inactive
c1ccc(-c2nc[nH]c2-c2ccccc2)cc1,Potency,[4],inactive
same,Potency,[16],"inconclusive: 19 µM [activator, partial curve, poor fit]"
CCCC(CCC)(C(=O)OCC)C(=O)OCC,Potency,[16],inactive
same,"activity, negative = inhibition",[20],inconclusive: -5.51% [at 35.3 µM]
O=C(Nc1ccccc1)OCC(CN1CCCCC1)OC(=O)Nc1ccccc1 (stereo not drawn),Potency,[10],inactive
same,Potency,[4],active: 26.6 µM
same,"activity change, negative = inhibition",[17]; [21],inconclusive: -22.3%
same,Potency,[9],"inconclusive: 8.41 µM [cytotoxic, partial curve, poor fit]"
same,Potency,[6],"inconclusive: 19 µM [cytotoxic, partial curve]"
same,Potency,[1],"inconclusive: 21.3 µM [cytotoxic, partial curve]"
same,Potency,[16],"inconclusive: 26.8 µM [activator, single point]"
same,Potency,[7],"inconclusive: 19 µM [cytotoxic, partial curve]"
same,Potency,[8],active: 18.8 µM
same,Potency,[2],inconclusive: 29.8 µM [cytotoxic]
